Holding throughout (assay): Viability of human cancer cell lines after 72 h of drug (GDSC screen)
Compound in assay [1]: CC/C(=C(\c1ccccc1)c1ccc(OCCN(C)C)cc1)c1ccccc1 [Tamoxifen]
To be noted: top dose 5 µM. The procedure: (§1)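 Human cancer cell lines in 384-well plates, medium with 10% serum, drug for 72 h over a 256-fold dose range (nine 2-fold or five 4-fold steps up to the top dose). Adherent lines were fixed and stained with the nucleic acid dye Syto60, suspension lines read with resazurin; signal relative to control wells, capped at 0 and 100%. One two-parameter sigmoid per drug and line, fitted in a mixed model over all curves with the slope shared within a line.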

Compound in assay [2]: O=S(=O)(O)c1ccc2cc(N=Nc3cc(S(=O)(=O)O)c4cccnc4c3O)ccc2c1 [NSC-87877]
To be noted: top dose 16 µM; top dose inferred. Here is the method:
as §1

Compound in assay [3]: O=C(Nc1cccc(Nc2ncc(Br)c(NCCc3cnc[nH]3)n2)c1)N1CCCC1 [BX-912]
The following applies: top dose 10.24 µM; top dose inferred. Here is the method:
as §1

Compound in assay [4]: O=C(/C=C/c1ccc(CN(CCO)CCc2c[nH]c3ccccc23)cc1)NO [LAQ824]
The following applies: top dose 1.024 µM; top dose inferred. The procedure: as §1

Compound in assay [5]: Cc1c(N)nc([C@H](CC(N)=O)NC[C@H](N)C(N)=O)nc1C(=O)N[C@H](C(=O)N[C@H](C)[C@@H](O)[C@H](C)C(=O)N[C@H](C(=O)NCCc1nc(-c2nc(C(=O)NCCC[S+](C)C)cs2)cs1)[C@@H](C)O)[C@@H](OC1OC(CO)C(O)C(O)C1OC1OC(CO)C(O)C(OC(N)=O)C1O)c1cnc[nH]1 [Bleomycin]
Here is the method:
as §1

Compound in assay [6]: CN(NC(=O)CC(=O)NN(C)C(=S)c1ccccc1)C(=S)c1ccccc1 [Elesclomol]
The following applies: top dose 0.2 µM; top dose inferred. Here is the method:
as §1

Compound in assay [7]: O=C(Nc1ccc(OC(F)(F)F)cc1)c1sccc1NCc1ccnc2ccccc12 [OSI-930]
The following applies: top dose 10.24 µM. The procedure:
as §1

Compound in assay [8]: CCCC(=O)OCc1ccc(OC(=O)/C=C(C)/C=C/C=C(C)/C=C/C2=C(C)CCCC2(C)C)cc1 [VNLG/124]
The following applies: top dose 5.12 µM; top dose inferred. Here is the method: as §1

Compound in assay [9]: COc1cc(N2CCC(C(N)=O)CC2)ccc1Nc1nc(N)c(Cl)c(Nc2ccccc2S(=O)(=O)C(C)C)n1 [HG-5-88-01]
To be noted: top dose 10 µM; top dose inferred. Here is the method: as §1

Compound in assay [10]: Cc1ccc(NC(=O)c2ccc(CN3CCN(C)CC3)cc2)cc1Nc1nc(-c2cccnc2)cs1 [Masitinib]
To be noted: top dose 20 µM. Here is the method: as §1

Where [11] appears, read: top dose 50 µM, screen: GDSC drug entry 1378, top dose inferred.
Where [12] appears, read: top dose 64 µM, screen: GDSC drug entry 190.

IC50 is the fitted dose that halves viability relative to control wells, and lower means more sensitive; a fit beyond the top or the lowest dose is shown as a bound at that dose. AUC, from the same fit, is the share of area under the viability curve across the 256-fold dose range; values near 1 show little effect. For some assays here: The top dose, if marked as inferred, was derived from the fitted curves, not read from the paper. For some assays here: An entry number marks a drug with two screens in the source, which often give different values.

A word on the IC50: it is the concentration that inhibits the measured activity by half.

For CAL-62 (thyroid, adherent), the AUC in [1] came to 0.964; in [2] it was 0.902; in assay [3], 0.926; in assay [4] it was 0.449; in assay [5] (setting [11]), 0.224; in [5] (setting [12]), 0.476. Moreover, the AUC in assay [6] is 0.613; in [7], 0.972; in [8] it was 0.981; in assay [9], 0.96; in assay [10] it was 0.981. Besides, the IC50 in assay [1] was over 5 µM; in assay [2], over 16 µM; in assay [3], over 10.2 µM; in assay [4], 0.0468 µM; in assay [5] (setting [11]), 0.514 µM; in assay [5] (setting [12]), 3.45 µM. Further, the IC50 in [6] is 0.0252 µM; in assay [7], over 10.2 µM; in [8], over 5.12 µM; in [9] it was over 10 µM; in assay [10], over 20 µM.
For OCUB-M (breast, adherent), the AUC in [1] stood at 0.974; in assay [2] it was 0.99; in assay [3] it was 0.77; in assay [4], 0.272; in [5] (setting [11]), 0.563; in assay [5] (setting [12]), 0.386. The AUC was 0.845 in [6]; 0.87 in assay [7]; 0.911 in [8]; 0.972 in [9]; 0.783 in assay [10]. In addition, the IC50 is over 5 µM in assay [1]; over 16 µM in [2]; 3.39 µM in [3]; 0.0161 µM in assay [4]; 4.53 µM in [5] (setting [11]); 2.04 µM in assay [5] (setting [12]). The IC50 in assay [6] is 0.117 µM; in assay [7] it was 7.44 µM; in assay [8], over 5.12 µM; in [9], over 10 µM; in assay [10], 7.26 µM.
For the cell line CP50-MEL-B (melanoma, adherent), the AUC in assay [1] worked out at 0.987; in [2], 0.987; in assay [3], 0.988; in assay [4], 0.677; in assay [5] (setting [11]), 0.66; in assay [5] (setting [12]), 0.985. The AUC came to 0.454 in [6]; 0.973 in assay [7]; 0.988 in assay [8]; 0.86 in [9]; 0.984 in assay [10]. The IC50 was over 5 µM in assay [1]; over 16 µM in assay [2]; over 10.2 µM in assay [3]; 0.198 µM in assay [4]; 8.66 µM in assay [5] (setting [11]); over 64 µM in assay [5] (setting [12]). The IC50 in assay [6] is 0.00937 µM; in assay [7], over 10.2 µM; in [8], over 5.12 µM; in assay [9], 8.26 µM; in assay [10] it was over 20 µM.
Consider “COR-L95 (small cell lung carcinoma, adherent)”, for which the AUC in assay [1] amounted to 0.98; in assay [2], 0.978; in assay [3], 0.963; in assay [4], 0.567; in assay [5] (setting [11]) it was 0.955; in assay [5] (setting [12]) it was 0.54. Besides, the AUC in assay [6] turned out to be 0.661; in assay [7] it was 0.979; in [8], 0.984; in assay [9] it was 0.946; in [10], 0.854. For the same cell line, the IC50 in assay [1] is over 5 µM; in [2] it was over 16 µM; in assay [3], over 10.2 µM; in assay [4], 0.1 µM; in assay [5] (setting [11]) it was over 50 µM; in [5] (setting [12]) it was 5.23 µM. Moreover, the IC50 is 0.0378 µM in [6]; over 10.2 µM in assay [7]; over 5.12 µM in [8]; over 10 µM in assay [9]; 19.8 µM in [10].
As for “NCI-H82 (small cell lung carcinoma, suspension)”, the AUC in [1] stood at 0.964; in assay [2], 0.985; in assay [3] it was 0.784; in assay [4], 0.551; in assay [5] (setting [11]), 0.854; in [5] (setting [12]), 0.932. Further, the AUC came to 0.62 in assay [6]; 0.989 in assay [7]; 0.973 in [8]; 0.965 in [9]; 0.98 in [10]. For the same cell line, the 50% inhibitory concentration (IC50) in [1] was over 5 µM; in assay [2], over 16 µM; in [3] it was 4.11 µM; in [4], 0.0873 µM; in assay [5] (setting [11]), 36.1 µM; in assay [5] (setting [12]), over 64 µM. Further, the IC50 was 0.0263 µM in assay [6]; over 10.2 µM in assay [7]; over 5.12 µM in [8]; over 10 µM in assay [9]; over 20 µM in assay [10].

The values above are taken from the supplement of paper PMC4967469.
